In all, about 33,000 sequences were measured (“E-score (-0.5 to 0.5)”: median about -0.053, highest 2% from about 0.37 on). The list shows a part of the results.
What follows are sequences tested against Hap1 (UniProt P0CE41) (assay: PBM E-score (8-mer binding enrichment) (E-score (-0.5 to 0.5)); higher = stronger / more preferred TF binding; most listed sequences are background and not binding sites). Conditions: protein concentration: 200 nM; construct: GST-DNA-binding domain.
In short: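 Each ungapped eight-base word and its reverse complement, pooled, received an E-score from the Universal PBM Analysis Suite. Underlying scans, normalised with masliner, recorded fluorescent anti-GST bound to GST-tagged yeast transcription factors. These were applied at about 100-200 nM to universal all-10-mer Agilent arrays double-stranded by primer extension.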

UniProt P0CE41, sequence (P0CE41 whole entry, the tested form may be a part): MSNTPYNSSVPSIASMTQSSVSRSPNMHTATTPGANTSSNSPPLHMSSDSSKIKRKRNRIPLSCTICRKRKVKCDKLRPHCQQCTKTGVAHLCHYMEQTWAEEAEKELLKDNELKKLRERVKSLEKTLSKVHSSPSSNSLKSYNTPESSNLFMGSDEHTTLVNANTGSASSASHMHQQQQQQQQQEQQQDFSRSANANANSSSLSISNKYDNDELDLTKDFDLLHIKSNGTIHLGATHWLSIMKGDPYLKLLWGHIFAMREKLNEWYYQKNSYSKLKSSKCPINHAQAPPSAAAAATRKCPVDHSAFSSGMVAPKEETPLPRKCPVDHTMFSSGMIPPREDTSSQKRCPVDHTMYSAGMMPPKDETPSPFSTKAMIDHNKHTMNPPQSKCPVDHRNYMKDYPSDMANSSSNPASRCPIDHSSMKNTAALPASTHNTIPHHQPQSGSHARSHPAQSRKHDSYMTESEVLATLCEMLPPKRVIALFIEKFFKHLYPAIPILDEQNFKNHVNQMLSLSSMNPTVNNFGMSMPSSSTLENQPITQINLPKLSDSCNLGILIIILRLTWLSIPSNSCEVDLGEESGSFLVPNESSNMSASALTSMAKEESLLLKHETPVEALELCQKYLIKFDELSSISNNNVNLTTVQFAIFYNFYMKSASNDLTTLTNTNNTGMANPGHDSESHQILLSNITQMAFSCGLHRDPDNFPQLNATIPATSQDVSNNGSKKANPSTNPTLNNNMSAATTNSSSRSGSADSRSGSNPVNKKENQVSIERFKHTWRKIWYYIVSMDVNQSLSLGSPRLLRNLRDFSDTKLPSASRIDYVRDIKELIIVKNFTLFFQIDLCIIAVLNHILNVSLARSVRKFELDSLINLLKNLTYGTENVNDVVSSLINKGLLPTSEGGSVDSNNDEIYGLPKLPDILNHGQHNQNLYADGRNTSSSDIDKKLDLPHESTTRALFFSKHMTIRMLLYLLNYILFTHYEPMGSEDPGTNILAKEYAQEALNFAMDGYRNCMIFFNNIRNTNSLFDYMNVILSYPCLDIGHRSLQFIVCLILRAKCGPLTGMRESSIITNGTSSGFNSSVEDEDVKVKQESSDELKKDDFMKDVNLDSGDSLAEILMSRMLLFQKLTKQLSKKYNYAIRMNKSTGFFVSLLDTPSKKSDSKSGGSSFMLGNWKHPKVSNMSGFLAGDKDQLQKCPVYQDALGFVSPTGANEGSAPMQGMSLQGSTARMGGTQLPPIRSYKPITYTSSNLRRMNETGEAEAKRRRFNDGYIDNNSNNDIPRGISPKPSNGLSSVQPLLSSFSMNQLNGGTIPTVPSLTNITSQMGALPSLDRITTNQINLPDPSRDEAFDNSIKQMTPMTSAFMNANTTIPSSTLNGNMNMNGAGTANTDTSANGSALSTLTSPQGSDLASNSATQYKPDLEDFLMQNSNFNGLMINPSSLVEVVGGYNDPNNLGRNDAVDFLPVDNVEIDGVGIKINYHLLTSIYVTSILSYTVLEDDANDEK

Sequence	PBM E-score
ACCGTACT	0.0174
AATCCTCT	-0.222
CACTTCAG	-0.0738
ACCGTTGA	0.0992
CTGACCCC	0.038
CGGCTTGC	0.184
AACACAGC	-0.037
ATCTATAC	-0.0485
CCACTCCC	0.119
CAGGCGGC	0.114
CATATCGA	0.0363
GGTTGGGA	-0.07
CTCAACAC	-0.0682
ACTTGTGA	-0.264
ATTCGAGA	-0.171
AAGGTATG	-0.0845
GGTAGTAC	-0.0713
GACATCAA	0.102
CTCCCGCA	0.22
ACCCACCC	0.184
AGAAAGCA	-0.127
TGAAAACA	-0.167
AACACAAG	-0.246
ACTCCGTC	0.3
GCCCGAAC	0.298

Sequence	PBM E-score
AGCTAGCC	-0.192
CCTCAACC	-0.123
CTCTCGGC	0.318
AAGTGGGA	-0.0321
GGAAGGAA	0.0733
AGTCCCTC	-0.175
CTTGCAGC	-0.137
AACGTAAG	-0.18
GATTCTGA	-0.0232
CAATACTG	-0.214
ATCTTTAC	-0.0607
ATTAGATC	0.0167
GCAAGCTA	-0.291
CACCTACA	-0.269
AACTGACT	-0.0432
GCGTACAC	-0.114
ATCGGATG	0.346
TTAGCTAA	-0.192
ACTACAAA	-0.114
ACGATCCG	0.302
ATTGCGTG	0.0241
CGGTCCGC	0.317
ACCACAAG	-0.0645
ATGTCGAG	-0.205
GGTCGAGA	-0.039

Sequence	PBM E-score
CCCAAAAA	-0.156
TAATCGTA	-0.0705
TCCTGAGA	-0.126
AGAGGATC	-0.163
AAGTAATA	-0.0959
CCAAGAAC	-0.149
AGTTCAAT	-0.203
CCGCCTAC	0.0932
ACCTAATG	-0.268
GTCCACAA	-0.0973
GCACACAC	-0.13
TCAACGAA	-0.102
ATGGCCAG	-0.165
AGCGAAAA	-0.0603
GTATGCCA	-0.0352
CTTGTTTA	0.0183
ACTTTCCC	0.0756
AACGCGGT	0.171
CAATCTTA	-0.113
ACCAGCGG	0.117
ACCTTGCA	-0.202
CCGTGATC	0.132
AGGTAACT	-0.0616
CCTCAAGA	-0.125
AAAGAGAA	-0.0755

Sequence	PBM E-score
ACCAACAA	0.018
CCCTTTCC	-0.0185
ACCTACTC	-0.0798
AGCCGGCC	0.354
AAGTCAGA	-0.116
CACGGTCA	-0.0339
AAGCTTGA	-0.0988
GCCCAAAC	-0.0175
AGTATGTC	-0.204
GAAATATC	0.274
TTGAAAAA	-0.215
AAAGTCTT	-0.103
ACTCTACT	-0.225
ACGACGAA	-0.00114
AGAGAAGA	-0.129
CCCCCAGA	-0.277
CACCCAAC	0.0332
ATTGCGTC	0.173
AACTTATG	-0.161
CGTAATTC	0.177
ATAAGCTA	-0.17
CGCCAGTC	-0.0945
ACTTGCAG	-0.214
CTTAACCC	0.217
ATATCGGA	0.439

Sequence	PBM E-score
CAGCCTGG	-0.194
TACCCGTA	-0.00463
CTCCTACC	-0.126
AGACTGTG	-0.326
ATATCCGC	0.387
AGTTGTTC	-0.108
CAAAAAGG	-0.282
CTAATGTC	0.0163
GTACGGAA	0.28
AAATGGAC	0.123
AGCAGTTC	-0.148
TCAGGTAA	-0.189
CGTTATAA	0.188
TACGGGGA	0.273
ATCAGCCA	-0.0937
AGGCCATC	-0.137
AAAAGGGT	-0.0482
TCGGATAA	0.374
TCTTATAA	0.0456
ATCGCCGA	0.445
AGTCCCCA	-0.319
CGCGTAAC	0.079
TCACTCCA	-0.111
CAGCGCTC	-0.0822
ATTAAAGC	0.0221

Sequence	PBM E-score
CGGTCAGA	0.289
CTTCGCGA	0.144
CGTTATCC	0.28
CAACTCTG	-0.136
AACAGACC	-0.0959
CTCGGATC	0.383
CCTGACCG	0.181
AAAGATTT	0.00922
CATTCGCC	0.106
CCGGTGCC	0.308
ACCTAGCC	0.105
AGGCTGTG	-0.019
ATGCCATC	-0.0678
AACCCGGA	0.371
ACGCGGTA	0.184
GTTCAGTA	-0.211
GCATATAC	-0.00768
GTATAGCA	-0.0474
CCTTCCAA	-0.209
CATAGGCG	-0.196
TACACCTA	-0.205
GGGCAAAA	0.22
GCTAGAGC	-0.0726
GCAGGGAC	-0.274
GAACGCTA	-0.166

Sequence	PBM E-score
ACGGGCAT	0.127
CTCCATTC	-0.15
CACAGTAC	-0.224
AAATCATT	-0.136
CTACGGTC	0.0364
CCCTTTTC	-0.0629
CTCGGGGC	0.335
AGAATCCC	0.0916
CACAACAC	-0.156
CAGTCCGG	0.364
ATTGCTCC	0.264
CAGTGTGC	-0.139
ATAAGATA	0.16
AGGATGGC	0.0408
CAGAGTGA	-0.117
ACACTCCG	0.2
AACTCGAT	0.0465
AAGACCAC	-0.297
CTCATTGA	-0.115
GTAGCCAA	-0.152
CCAGAGAG	-0.208
CGCTGGCC	-0.0106
CGACAGTC	-0.159
AGTATAAG	-0.0688
CGAGAGTA	0.127

Sequence	PBM E-score
AGCAGCTG	-0.167
AAACCGTT	0.0886
GTAGGCGA	-0.174
AATTCGAT	0.151
ACGTGGGA	-0.28
GTACTCAA	-0.108
AGGCTATC	-0.0678
AGAGGTTA	-0.0359
AATCACCG	0.34
AATAGGAA	-0.0637
CCGCTATA	0.27
TGCCGAAA	0.303
CGATGCCC	0.023
ATTGGAGA	6e-05
AATTGGAA	-0.0476
CGGTGCGA	0.14
ACAACTCA	-0.196
CCAGACGG	-0.0104
TCACATGA	-0.276
GAATACGA	0.0822
GGGGACAA	0.107
AACTACTG	-0.0821
CACGAGTA	-0.181
ATGGATAG	-0.0479
AGTTGCGC	0.0784

Sequence	PBM E-score
ATAGACAA	-0.101
CCCCTGCC	-0.235
AACAGGGT	-0.0582
GATGAGGA	-0.0967
GGATTGAA	0.125
AGGCGTTC	-0.0584
ATTCGAGC	-0.0132
TATAGACA	-0.189
GTATGAAA	-0.0897
GGGGGTAA	0.0492
AAGTTAGT	-0.0152
ACAGGGTA	-0.125
AAGTAACG	0.0942
GGGGGGGA	-0.158
TAGGTACA	-0.318
CAACATCA	-0.144
CCTGCGGA	0.209
CGCTGCCA	0.0394
GTCTTTGA	-0.209
CCACGATC	-0.101
ACGTTTAT	-0.195
AGCAGACG	0.012
CGATAACG	0.249
ACCAAAAT	0.00352
CATGCATC	0.0924

Sequence	PBM E-score
ACCCCGGC	0.259
ACCCCCCC	-0.241
CTCAAGTA	-0.206
AGGCCAGC	-0.262
GATAACGC	0.305
CAGATACA	-0.1
CCTCGCAC	0.00768
TCTGACCA	-0.155
ACTCTGGG	-0.134
AGCGCTCG	0.141
AGCCGGCG	0.352
ACACGACA	-0.183
TCCGTAAA	0.348
GTAGAGCA	-0.377
CAGGCCGA	0.251
CCCTCGGA	0.373
ACAACGAT	0.0214
CTTCTCAC	-0.0697
CGACCCAG	-0.0655
CTTCGGAC	0.406
AGACAAGC	-0.189
TGATACCA	-0.0747
GAGAGATC	-0.0834
AATTGGGT	-0.0265
TCGATGCA	-0.184

Sequence	PBM E-score
AAATCGAC	-0.003
AAACGCTC	0.0499
CGTAGCAC	-0.131
ATCGCCCA	-0.0821
CTGACGTC	-0.156
ACATGGCT	-0.116
ATGGATTA	-0.222
CCTCATAA	-0.0823
AGTTGGTG	-0.106
GCGGCGAC	0.269
CCACCGGA	0.432
ACAACCAC	-0.0273
ATCATTGC	-0.148
CTAACATC	-0.0797
ACAAGGCT	-0.23
CCACCGCG	0.203
TACGTCGA	-0.105
TACTCCGA	0.375
CCAGTGAG	-0.0782
CCTGTCCA	-0.259
AATCGTCC	0.162
CATTATAC	-0.00389
CTCATTCA	-0.0531
ATGAGCCC	-0.159
GCGTTGGA	0.0179

Sequence	PBM E-score
CCAGCCTC	-0.124
CTTAAGAA	-0.104
GAGCCTGC	0.00282
AAACGGAC	0.229
TAAAGCCA	-0.0796
TCATGTCA	-0.293
CCAAGTCC	0.0422
AAGGCGCC	0.0149
CTGGGATC	0.00427
ACGTCCTG	-0.211
CAGAATAG	-0.144
GCCCGGAA	0.402
GAAACGCC	0.238
AGTTTCGG	0.345
TGCAGCAA	-0.0554
CCGGGGGA	0.343
AGACAGGA	-0.133
GAGGCATC	-0.0843
ATCGCTGC	0.222
ATGCAATG	-0.17
CAAGCTGA	-0.236
CTTCCTTA	-0.119
CCCTGTGC	-0.222
GATGTTGA	-0.173
GGGGTTTA	0.266

Sequence	PBM E-score
ACCCTACT	-0.114
AAGGGGCA	-0.0967
ATTATGGA	0.00681
AAATGGGT	-0.0173
CAAATCTC	0.0956
CTGATCTC	-0.0864
GCACAACC	-0.0717
CAGTTGCC	-0.132
GCCTAAGA	-0.204
GAGTCCGA	0.35
GTGACTAA	-0.0884
ACCCACGA	-0.0634
GAGGCTGA	-0.191
ATATCTCA	0.108
GGCGAGTA	0.0239
TACGAGTA	-0.072
AAGTAAGC	-0.0755
CCGAGGTC	0.368
TCTCCTCA	-0.138
GGAGTCTA	-0.0797
ATCCTTAA	-0.224
CTTCCCAA	-0.197
GATATAAC	0.215
GTGGGGGA	-0.194
ATCACCCG	0.325

Sequence	PBM E-score
CGATTGGC	0.0158
CTCGTCCC	-0.0345
CTCCAGCC	-0.0496
ATTATTTG	0.0294
ACCTTTCG	0.0668
GTTCTGGA	-0.231
TCCCGAAA	0.285
AGTGGTAT	-0.1
AATCGCCA	-0.106
TCAAGGAA	-0.123
AAGAGTGC	-0.125
ACAAGTAT	-0.0894
AATTTGGT	0.0361
ACCACCCA	-0.0991
ATGCTCCG	0.344
AGACTTAC	-0.17
AATGGATG	-0.171
ACAGGTAA	-0.0927
ACACAACA	-0.134

— the supplement of paper PMC3334620
